Whole data set: some 110,000 compounds, median “z-score” near -0.1, cut for the highest 2% near 2. Some of the results follow.
These compounds were tested against Metabotropic glutamate receptor 8 (Rattus norvegicus) (UniProt P70579) (assay: rat mGluR8 modulators via GIRK flux, primary screen, cell-based, thallium flux, HTS (AID 488969)). Details: HEK293 rat mGluR8, GIRK (G protein-gated inwardly rectifying potassium channel) thallium flux, FluoZin2; at 10 µM; stronger effect = higher value; submaximal glutamate (EC20) added with thallium.
Sequence of UniProt P70579 (P70579 whole entry, looked up): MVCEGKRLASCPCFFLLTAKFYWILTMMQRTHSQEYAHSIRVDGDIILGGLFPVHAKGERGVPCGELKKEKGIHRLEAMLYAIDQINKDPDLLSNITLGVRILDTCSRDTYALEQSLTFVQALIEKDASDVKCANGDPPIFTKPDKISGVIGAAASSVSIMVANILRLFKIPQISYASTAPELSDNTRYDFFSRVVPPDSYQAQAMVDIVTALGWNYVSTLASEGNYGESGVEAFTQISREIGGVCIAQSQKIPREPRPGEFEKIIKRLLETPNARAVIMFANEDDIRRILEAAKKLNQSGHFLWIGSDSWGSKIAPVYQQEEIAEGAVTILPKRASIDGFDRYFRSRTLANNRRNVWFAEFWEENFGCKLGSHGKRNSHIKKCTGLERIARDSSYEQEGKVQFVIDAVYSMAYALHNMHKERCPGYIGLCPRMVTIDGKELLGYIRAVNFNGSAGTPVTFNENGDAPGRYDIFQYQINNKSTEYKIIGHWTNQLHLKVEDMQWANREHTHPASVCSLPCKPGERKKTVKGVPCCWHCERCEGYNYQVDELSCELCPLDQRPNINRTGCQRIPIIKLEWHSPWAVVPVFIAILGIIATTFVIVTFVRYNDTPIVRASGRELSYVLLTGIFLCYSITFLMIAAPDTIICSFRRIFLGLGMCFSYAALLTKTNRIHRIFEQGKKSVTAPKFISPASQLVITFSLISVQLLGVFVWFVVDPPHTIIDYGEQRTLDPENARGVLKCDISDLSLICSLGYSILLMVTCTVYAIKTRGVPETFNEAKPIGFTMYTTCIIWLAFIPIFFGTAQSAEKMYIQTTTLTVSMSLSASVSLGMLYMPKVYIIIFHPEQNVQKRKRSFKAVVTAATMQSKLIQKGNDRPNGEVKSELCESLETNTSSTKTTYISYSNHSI

SMILES | z-score
Cc1sc2ncnc(SCC(=O)NC3CC3)c2c1C | 0.845
COC1CCCCC1Nc1cccc(SC)c1 (centres undefined) | -0.00833
COC(=O)c1ccc(-n2nnnc2SC)cc1 | 0.0382
CCC(=O)c1ccc(OCC(O)CN2CCN(C(c3ccccc3)c3ccccc3)CC2)cc1 (centres undefined) | 0.0265
Cc1ccc(NC(=O)C2CCN(S(=O)(=O)c3cccc4cccnc34)CC2)nc1 | -0.689
CC1(C)N=C(N)N=C(N)N1c1ccc(C(=O)O)cc1 | -0.0416
CCCC(=O)Nc1ccc(C(=O)NNC(=O)c2ccccc2Br)cc1 | -0.141
CSc1ccc(C(=S)N2CCN(Cc3ccccc3)CC2)cc1 | -0.199
Cc1cc([N+](=O)[O-])nn1Cc1ccc(C(=O)N/N=C/c2ccc(O)cc2O)cc1 | -0.206
Cc1ccccc1-n1nc2c(c1NC(=O)c1cccc(F)c1)CS(=O)C2 (centres undefined) | -0.112
Fc1cccc(Cl)c1Cn1nnc(-c2ccc(N3CCOCC3)cc2)n1 | 0.136
COc1ccc(C2C(C#N)=C(N)SC(N)=C2C#N)cc1OC | -0.738
O=C(NC1CCCC1)C1c2ccccc2C(=O)N1C1CCCCC1 (centres undefined) | -0.386
Nc1nc(CN2CCN(c3ccccc3F)CC2)nc(Nc2ccc3c(c2)OCCO3)n1 | -0.425
O=C(CCc1ccccc1)NNC(=O)c1ccccc1C(=O)O | -0.053
CC1CCCC(NC(=O)COC(=O)c2ccc(N(C)C)cc2)C1C (centres undefined) | -0.327
CCNc1nc(NCC)nc(Oc2ccc(N)cc2)n1 | -0.231
CCc1nc(Nc2ccc(OC)c(OC)c2)c2nnn(Cc3ccccc3Cl)c2n1 | 0.049
COc1ccccc1NC(=O)CC1C(=O)NCCN1C(=O)Nc1ccccc1 (centres undefined) | -0.0489
CC(C)(C)NC(=O)COC(=O)c1cncc(Br)c1 | -0.128
COC(=O)c1[nH]c2ccc(C)cc2c1NC(=O)C1=COCCO1 | -0.0549
CC(C)C1Cc2c(sc(NC(=S)NC(=O)c3ccccc3)c2C#N)CO1 (centres undefined) | -0.13
C=CCO/N=C/C1C(=O)CC(C)(C)CC1=O | 0.0439

SMILES | z-score
Cc1ccc(Cl)cc1N1CCN(S(=O)(=O)c2cnc[nH]2)CC1 | -0.301
Cc1cc(C)nc(SCc2nnc(SCC(=O)N3CCOCC3)o2)n1 | 0.157
COc1ccc(CNC(=O)C/C(C)=N/NC(=O)Cc2ccc(OC)cc2)cc1 | -0.368
CC1CCN(CCOc2cc(Cl)ccc2Cl)CC1 | 0.0687
Clc1ccc(SCc2cn3ccsc3n2)cc1 | -0.476
C=CCc1cc(C=O)cc(OCC)c1OCc1ccc(Cl)cc1 | 0.504
O=C(O)c1ccc2c(c1)-c1nc3ccccc3n1C2=O | -0.383
COc1ccc2nc(SCCOC(=O)Nc3ccc(Cl)cc3)nc(C)c2c1 | 0.0957
Cc1c(C(=O)OCc2ccccc2)nnn1-c1nonc1N | 0.544
COc1ncnc2c1oc1nc(CC(C)C)c3c(c12)CC(C)(C)OC3 | -0.0934
COc1cc2[nH]c(=S)n(CCCN3CCOCC3)c(=O)c2cc1OC | 0.0597
CC(C)CC(=O)NC(Nc1ccccc1F)C(Cl)(Cl)Cl (centres undefined) | 0.198
O=C(Nc1ccccc1Sc1ccccc1)c1ccccc1F | 0.0431
CCOC(=O)N1CCN(Cc2nc(N)nc(Nc3ccc(Oc4ccccc4)cc3)n2)CC1 | -0.169
COc1ccc(S(=O)(=O)Nc2cc(C)c(O)cc2C(C)C)cc1 | -0.264
CSc1ccc(C2C(C#N)=C(N)Oc3c2ccc(=O)c2c(C)oc(C)c32)cc1 (centres undefined) | -0.0831
CCSC1(SCC)N=C(N)C2(C#N)C(c3ccccc3)NC(C)=C(C)C12C#N (centres undefined) | 0.276
O=S(=O)(c1cccs1)N1CCCc2ccccc21 | 0.48
Cc1nc(NC(=S)NC(=O)COc2ccccc2Cl)ccc1Br | 0.851
CCCc1cc(C(=O)NCC(C)C)no1 | -0.432
Cc1ccc(N(CCC(=O)Nc2nnc(C3CC3)s2)S(=O)(=O)c2ccccc2)cc1 | -0.204
Nc1nncn1C(=O)CCCOc1ccccc1 | 0.683
COc1ccc(C(=O)NC(=S)Nc2ccc(N3CCOCC3)c(Cl)c2)cc1[N+](=O)[O-] | -0.0588

SMILES | z-score
Cc1cccc(NC(=O)c2cnc3n(c2=O)CCS3)c1 | 0.0446
CCC(=O)Nc1ccc(Cl)c(NC(=S)NC(=O)COc2ccccc2)c1 | -0.169
O=C(NC(Cc1ccccc1)C(=O)O)/C(=C/c1ccco1)NC(=O)c1cccc(Br)c1 (centres undefined) | 0.198
O=S(=O)(c1cccs1)N1CCN(CC(O)COc2cccc(Br)c2)CC1 (centres undefined) | -0.105
O=C(NCC1CC1)c1ccc(Nc2nc3ccc(Br)cc3[nH]2)cc1 | -0.393
CCC(C)(C)n1nnnc1C(c1ccccn1)N1CCCCC1 (centres undefined) | 0.549
CCn1c(C(C)NC(=O)Cc2ccccc2)nc2ccccc21 (centres undefined) | -0.345
COc1cccc(C(=O)OC2CCCN(C)C2)c1 (centres undefined) | -0.125
COc1cccc(OC)c1OCCN1CCN(C(=O)c2ccco2)CC1 | 0.173
NC(=O)/C=C\c1cn(-c2ccccc2)nc1-c1ccc2c(c1)OCCO2 | 2.14
O=C(Nc1ccc2oc(-c3cccnc3)nc2c1)c1cc2ccccc2o1 | 0.228
COc1ccc(OC)c(NC(=O)CC2SC(=Nc3ccccc3)N(CCc3ccccn3)C2=O)c1 (centres undefined) | -0.173
COc1ccc(C)cc1NC(=O)c1nnn(CCc2ccccc2)c1N | -0.27
C=C(C)COc1ccc2oc(C)c(C(=O)OCCOC)c2c1 | -0.598
O=C1C2CC=C(Cl)CC2C(=O)N1CCN1CCOCC1 (centres undefined) | -0.129
CC1(C)CC(=O)C(C=NCCN2CCN(C(=O)c3ccc(Br)cc3)CC2)=C(O)C1 | -0.23
COCCOC(=O)C1=C(C)N=c2s/c(=C\c3cccs3)c(=O)n2C1c1cccs1 (centres undefined) | -0.232
CCN1CCN(C(c2cccs2)C(C)NC(=O)c2ccco2)CC1 (centres undefined) | 0.758
COc1cccc(C(=O)N(Cc2ccccc2)Cc2cc3cc4c(cc3[nH]c2=O)OCCO4)c1 | 0.295
CCSc1nnc(NC(=O)c2cccnc2)s1 | -0.0157
O=C(NCCCN1CCOCC1)c1cc(-c2ccc(F)cc2)on1 | -0.126
O=C(Nc1cccc2cccnc12)C1CCCC1 | -0.134
Cc1nc(SCC(=O)N2c3ccccc3Sc3ccccc32)n[nH]1 | -0.0789

SMILES | z-score
COC(=O)CCN1CCC(C(N)=O)CC1 | -0.109
CCCCCCC(=O)N(O)C1CC(=O)N(c2ccc(C)cc2)C1=O (centres undefined) | 0.013
C=CCn1c(SCC(=O)Nc2ccccc2)nc2scc(-c3cccs3)c2c1=O | 0.00798
CCc1cccc(CC)c1NC(=O)COn1nnc2ccc(C(F)(F)F)cc21 | -0.14
Cc1cc(C(=O)COC(=O)C2COc3ccccc3O2)c(C)n1CC1CCCO1 (centres undefined) | -1.82
Cc1ccc(C)c2[nH]c(=O)c(CN(CCN3CCCC3)C(=O)Nc3cccc(Cl)c3)cc12 | 0.666
Cc1nnc(SCC(=O)Nc2ccc3c(c2)COC3=O)n1-c1ccccc1 | 0.767
CCc1ccc(C=NC23CN4CN(CN(C4)C2)C3)s1 | -0.307
COc1ccc(S(=O)(=O)N2CCC(C(=O)NCCc3ccc4c(c3)OCO4)CC2)cc1 | 0.188
C/C(N)=C(/C#N)C(=O)CSc1n[nH]c(-c2ccccc2Br)n1 | -0.0674
Cc1nn(CC(O)c2ccccc2)c(C)c1Br (centres undefined) | -0.271
O=C1CC(c2ccc3c(c2)OCO3)C2=C(CCCC2=O)N1 (centres undefined) | -0.2
CCOC(=O)C(Oc1ccc2c(-c3ccccc3)cc(=O)oc2c1C)c1ccccc1 (centres undefined) | -0.0738
Cc1cc(SCC(=O)Nc2ncc(Cl)cc2Cl)nc2ccccc12 | -0.395
Clc1ccc(Nc2nc(-c3ccncc3)cs2)cc1 | -0.304
CCn1c(SCC(=O)Nc2ccc(C(C)=O)cc2)nc2ccccc21 | 0.352
C/C(=N\N=C1\NC(=O)CC(C(=O)O)S1)c1ccc(F)cc1 (centres undefined) | -0.169
CCN(C(=O)c1ccco1)c1nnc(-c2ccc(OC)cc2)s1 | -0.125
N#Cc1cc(C(=O)c2cc(Cl)ccc2O)cn(-c2ccccc2)c1=O | -0.35
Cc1cc(C)nc(SC2CCOC2=O)n1 (centres undefined) | -0.0163
CCC(=O)c1ccc(N2CCN(C(=O)c3cc([N+](=O)[O-])ccc3N3CCN(C)CC3)CC2)c(F)c1 | 1.28
Brc1cc(Br)c2nc(-c3ccc(N4CCOCC4)cc3)ccc2c1 | -0.0727
c1ccc2c(N3CCCCC3)nnc(N3CCCCC3)c2c1 | -0.359

SMILES | z-score
Cc1ccc2c(c1)c(C)c(C)n2CC(O)Cn1nnc2ccccc21 (centres undefined) | 0.112
Cc1cc2ncn(CC(O)COC3CCCCC3)c2cc1C (centres undefined) | -0.0556
CCCCCCc1cc2cc(S(=O)(=O)c3ccc(F)cc3)c(=O)oc2cc1O | -0.0939
O=C(Nc1ccc(Br)cc1)c1ccc(N2C(=O)C3CC=CCC3C2=O)cc1 (centres undefined) | 0.106
FC(F)(F)c1cnc(Oc2ccccc2-c2nnco2)c(Cl)c1 | 0.892
Cc1ccc(NC(=O)/C=C/C(=O)O)c([N+](=O)[O-])c1 | 1.28
Cc1cc(C)c(S(=O)(=O)NCC(=O)O)cc1C | -0.286
CC(C)(C)n1nnnc1CN(Cc1ccc(F)cc1)Cc1ccco1 | -0.212
Cc1ccc(S(=O)(=O)c2c(N)n(Cc3ccco3)c3nc4ccccc4nc23)cc1C | -0.618
COc1ccccc1NC(=O)C(=O)Nc1ccccn1 | 0.41
C/C(=N\S(=O)(=O)c1ccc(C)cc1)Nc1cc(C(C)C)c(O)cc1C | 0.603
CCCCn1nnc(NC(=O)c2ccc(-c3ccccc3)cc2)n1 | -0.666
COc1ccc(-n2ncc3c(=O)n(CC(=O)N4c5ccccc5CC4C)cnc32)cc1 (centres undefined) | 0.214
Cc1cccc(OCC(=O)O/N=C(\N)c2ccccn2)c1C | -0.113
CCOC(=O)c1c(C)nc2sc(C(N)=O)c(N)c2c1-c1ccc(OC)cc1 | -1.17
CCOC(=O)Cc1ccc2sc(-c3ccccc3)nc2c1 | -0.137
O=C(Nc1nccs1)c1ccc(-c2ccccc2Cl)o1 | -0.107
C=CCc1ccccc1OCCn1ccnc1 | 0.68
COc1ccccc1NC(=O)[C@H](COCc1ccccc1)NC(=O)OC(C)(C)C | 0.143
CC1(C)CC(=O)C2=C(C1)N(CCN1CCOCC1)C1=C(C(=O)CC(C)(C)C1)C2c1cccc(F)c1 | -0.358
CCn1c(O)c2ccc(C(=O)N=NC(=O)c3cccnc3)cc2c1O | -0.168
COC(Cc1nnc(SC)n1-c1ccc(Cl)cc1)OC | 0.0781
